The data scatter; read single values as rough.
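Further: [psi-pin-] Saccharomyces cerevisiae expressing SupN fusions, induced by 100 µM Cu2SO4, selected 7 d at 30 °C without adenine and uracil, scored by deep sequencing of output versus input.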

One data set in a line: amyloid nucleation score relative to library mode (yeast Sup35 reporter selection) (log enrichment difference); higher = more amyloid nucleation; sequences are the first 22 residues of the Bri2 peptide extended by up to 12 random residues. As to conditions: random library (experiment): 1;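 active = nucleation score significantly above 0 at FDR 0.05; inactive = not significantly above 0 or absent from output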.
In the case of EASNCFAIRHFENKFAVETLICLMSGCK, the amyloid nucleation score entry was “inactive”.
As to EASNCFAIRHFENKFAVETLICLMSGMLGGKSLA, the amyloid nucleation score entry is “inactive”.
EASNCFAIRHFENKFAVETLICLMSHCKCPFTEA: the amyloid nucleation score turned out to be 7.49.
On the same count and under the same terms, with EASNCFAIRHFENKFAVETLICLMSSLGTVPLCR the entry was “inactive”.
Take EASNCFAIRHFENKFAVETLICLMSSPDPLVLER: the amyloid nucleation score entry is “inactive”.
As for EASNCFAIRHFENKFAVETLICLMT, the amyloid nucleation score was 0.726.
On the same count and under the same terms, with EASNCFAIRHFENKFAVETLICLMVIG the entry was “inactive”; with EASNCFAIRHFENKFAVETLICLMVSQPMLSSVV, “inactive”; with EASNCFAIRHFENKFAVETLICLMWYPT, “inactive”.
Same read-out and setting: with EASNCFAIRHFENKFAVETLICLNCGCRGRLMIT the entry was “inactive”; with EASNCFAIRHFENKFAVETLICLNDCARRVSCRC, -0.399; with EASNCFAIRHFENKFAVETLICLNDKGIGTHVFK, 1.03.
EASNCFAIRHFENKFAVETLICLNLCISKHTFGA: the amyloid nucleation score is 4.14.
The same measure, in the same setting: with EASNCFAIRHFENKFAVETLICLNMLRTWRASVA the figure was -0.195.

Still in this data set, the particulars now being: random library (experiment): 2.
Take EASNCFAIRHFENKFAVETLICLMSLDSVLRCKR: the amyloid nucleation score is -0.378.
Turning to EASNCFAIRHFENKFAVETLICLMSMYTSFIVFT, the amyloid nucleation score was determined as 0.923.
Consider EASNCFAIRHFENKFAVETLICLMSTIHLPLIDW, for which the amyloid nucleation score result is “inactive”.
Same read-out and setting: the value for EASNCFAIRHFENKFAVETLICLMVWAYQKYMNG was “inactive”; that for EASNCFAIRHFENKFAVETLICLMWHHVNAQTDF was 2.68.
For the sequence EASNCFAIRHFENKFAVETLICLMYFKFNTIVDG, the amyloid nucleation score entry is “inactive”.
As for EASNCFAIRHFENKFAVETLICLMYNYQHRVFLS, the amyloid nucleation score result is “inactive”.
Same read-out and setting: the value for EASNCFAIRHFENKFAVETLICLMYT was “inactive”.
Still for that read-out and setting: the value for EASNCFAIRHFENKFAVETLICLN was “inactive”; that for EASNCFAIRHFENKFAVETLICLNDARKRNLNRV was “inactive”.
As for EASNCFAIRHFENKFAVETLICLNECYNQQSSIS, the amyloid nucleation score entry was “inactive”.
As to EASNCFAIRHFENKFAVETLICLNEV, the amyloid nucleation score entry was “inactive”.
Turning to EASNCFAIRHFENKFAVETLICLNFSIRSLEWLI, the amyloid nucleation score was determined as 4.4.
For the sequence EASNCFAIRHFENKFAVETLICLNHHKMQFFLYQ, the amyloid nucleation score result is “inactive”.
Sequence EASNCFAIRHFENKFAVETLICLNIFL had an amyloid nucleation score of 8.17.
EASNCFAIRHFENKFAVETLICLNILANSTCSFA had an amyloid nucleation score of 5.72.
The same measure, in the same setting: the value for EASNCFAIRHFENKFAVETLICLNILRRVTIHLH was “inactive”.
For the sequence EASNCFAIRHFENKFAVETLICLNINHVPWQSSM, the amyloid nucleation score was 6.65.
The sequence EASNCFAIRHFENKFAVETLICLNL displayed an amyloid nucleation score of 5.73.
EASNCFAIRHFENKFAVETLICLNLFGFSKRNSA registered an amyloid nucleation score of 8.32.
For the sequence EASNCFAIRHFENKFAVETLICLNLKVAD, the amyloid nucleation score result is “inactive”.
As for EASNCFAIRHFENKFAVETLICLNLVNCCYLKYQ, the amyloid nucleation score entry is “inactive”.

The same data set, now with this note: random library (experiment): 3.
With EASNCFAIRHFENKFAVETLICLMSDNHVMSVTW, the amyloid nucleation score entry is “inactive”.
The same measure, in the same setting: with EASNCFAIRHFENKFAVETLICLMTV the entry was “inactive”; with EASNCFAIRHFENKFAVETLICLMWEWPLPRAQG, “inactive”.
For EASNCFAIRHFENKFAVETLICLMWGLSRTGLDA, the amyloid nucleation score result is “inactive”.
Sequence EASNCFAIRHFENKFAVETLICLNASINGCSRLQ came in with an amyloid nucleation score of 9.08.
On the same count and under the same terms, with EASNCFAIRHFENKFAVETLICLNGLVRGMLSML the figure was 1.05.

For the origin of these results see the supplement of paper PMC12067230.
